# Test results as given in PubChem BioAssay AID686979 (National Center for Advancing Translational Sciences (NCATS), 2013).
# Among all 420,000 compounds or so, about 50,000 (12%) were called active. This list was built around the results that the source calls inconclusive (neither active nor inactive); the mix of calls is not that of the screen. The call rests on the fitted dose curve; in most records, active means well fitted inhibition curve with a large enough effect; inconclusive means small, poorly fitted or top-dose-only effect; inactive means flat fitted curve, though single readings scatter. Potencies of inconclusive entries are left out as doubtful fits.
# Experiment: qHTS for Inhibitors of human tyrosyl-DNA phosphodiesterase 1 (TDP1): qHTS in cells in presence of CPT; further: nearly all actives have a fitted effect of over 55% in size
# Conditions: chicken DT40 Tdp1-/-;hTDP1 cells + 20 nM CPT, ATP luminescence, 48 h; series mostly up to 46.2 µM
# How it was run: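 Cell growth measured by CellTiter-Glo luminescence after a minimum 48 h, 37 C compound exposure with 20 nM CPT in Tdp1-knockout DT40 cells stably expressing hTDP1, seeded 400/well; qHTS titration format.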
# Potency means the concentration at half of the fitted maximal effect; tags describe the fitted curve by direction and shape.
row,SMILES,Potency
1,COc1ccc(CN2CC(=O)N3[C@H]4c5ccccc5OC[C@@H]4[C@H](c4ccccc4)[C@]3(C)C2=O)cc1,"inconclusive [inhibitor, single point]"
2,CCC(=O)N(CC)c1nc(-c2cc(OC)ccc2OC)cs1,"inconclusive [inhibitor, single point]"
3,CCCCNC(=O)NC1CCCC1,inactive
4,CC(C)(C)Nc1nc(-c2ccc3c(c2)CCN3C(=O)C2CC2)cs1,"inconclusive [inhibitor, single point]"
5,Cc1c(CN2CCN(CC(C)(C)C)C(CCO)C2)[nH]c2ccccc12 (centres undefined),inactive
6,COc1ccc(CNc2ccnc(-c3ccccc3CN(C)C)n2)c(OC)c1,"inconclusive [inhibitor, partial curve, poor fit]"
7,CCOc1ccc(NC(=O)c2ccc3c(c2)CCN3S(C)(=O)=O)cc1,inactive
8,Cc1ccc(C(=O)CCNc2ccc(F)c(Cl)c2)o1,active: 16.4 µM
9,COc1cc(C2=NOC(C(=O)NCc3cccs3)C2)cc(OC)c1OC (centres undefined),active: 2.31 µM
10,O=C1C=CC2(O[C@H](c3ccccc3)[C@@H](c3ccccc3)O2)[C@H](Sc2ccccc2O)C1,active: 0.461 µM
11,Cc1ccc(N2C(=O)C(NC(=O)c3ccccc3F)(C(F)(F)F)C3=C2CC(C)(C)CC3=O)cc1 (centres undefined),"inconclusive [inhibitor, single point]"
12,CCc1ccc(C(=O)CSC2=C(C#N)C(c3ccco3)C(C(C)=O)=C(C)N2)cc1 (centres undefined),"inconclusive [inhibitor, single point]"
13,CC(NC(=O)c1ccco1)C(=O)N1CC=C(c2ccccc2)CC1 (centres undefined),"inconclusive [inhibitor, partial curve, poor fit]"
14,CCCCNC(=O)c1nn(-c2ccc(C)cc2)c(=O)c2c1c1ccccc1n2C,active: 8.2 µM
15,Cc1ccccc1-n1c(SCC(=O)NC2CCS(=O)(=O)C2)nc2ccccc2c1=O (centres undefined),"inconclusive [inhibitor, single point]"
16,Cc1cc(S(=O)(=O)N(Cc2ccccc2F)C2CC2)ccc1-n1cnnn1,"inconclusive [inhibitor, single point]"
17,COC(=O)[C@]1(C)CCC[C@@]2(C)C3CC[C@@]4(C)C[C@]3(CCC21)CC(=O)N4Cc1ccc(OC)cc1 (some centres undefined),active: 11.6 µM
18,Cc1ccc(S(=O)(=O)N(C)CC(=O)Nc2ccccc2)cc1,inactive
19,COc1ccc(N2CCN(C(=O)c3sc4ncn(CC(=O)N5CCCCC5C)c(=O)c4c3C)CC2)cc1 (centres undefined),"inconclusive [inhibitor, single point]"
